Experimental data published in publication PMC4336329 (PLoS ONE, 2015).
Out of some 310,000 compounds screened, about 2,200 (0.71%) showed an effect of 50% or more. Effects have a minus sign here. The list shows a part of the results.

The molecules below were run against human ether-à-go-go-related gene (hERG) potassium channel (human, UniProt Q12809) (assay: primary screen, population patch clamp on CHO cells stably expressing hERG).
Sequence of human ether-à-go-go-related gene (hERG) potassium channel (Q12809 whole entry, looked up): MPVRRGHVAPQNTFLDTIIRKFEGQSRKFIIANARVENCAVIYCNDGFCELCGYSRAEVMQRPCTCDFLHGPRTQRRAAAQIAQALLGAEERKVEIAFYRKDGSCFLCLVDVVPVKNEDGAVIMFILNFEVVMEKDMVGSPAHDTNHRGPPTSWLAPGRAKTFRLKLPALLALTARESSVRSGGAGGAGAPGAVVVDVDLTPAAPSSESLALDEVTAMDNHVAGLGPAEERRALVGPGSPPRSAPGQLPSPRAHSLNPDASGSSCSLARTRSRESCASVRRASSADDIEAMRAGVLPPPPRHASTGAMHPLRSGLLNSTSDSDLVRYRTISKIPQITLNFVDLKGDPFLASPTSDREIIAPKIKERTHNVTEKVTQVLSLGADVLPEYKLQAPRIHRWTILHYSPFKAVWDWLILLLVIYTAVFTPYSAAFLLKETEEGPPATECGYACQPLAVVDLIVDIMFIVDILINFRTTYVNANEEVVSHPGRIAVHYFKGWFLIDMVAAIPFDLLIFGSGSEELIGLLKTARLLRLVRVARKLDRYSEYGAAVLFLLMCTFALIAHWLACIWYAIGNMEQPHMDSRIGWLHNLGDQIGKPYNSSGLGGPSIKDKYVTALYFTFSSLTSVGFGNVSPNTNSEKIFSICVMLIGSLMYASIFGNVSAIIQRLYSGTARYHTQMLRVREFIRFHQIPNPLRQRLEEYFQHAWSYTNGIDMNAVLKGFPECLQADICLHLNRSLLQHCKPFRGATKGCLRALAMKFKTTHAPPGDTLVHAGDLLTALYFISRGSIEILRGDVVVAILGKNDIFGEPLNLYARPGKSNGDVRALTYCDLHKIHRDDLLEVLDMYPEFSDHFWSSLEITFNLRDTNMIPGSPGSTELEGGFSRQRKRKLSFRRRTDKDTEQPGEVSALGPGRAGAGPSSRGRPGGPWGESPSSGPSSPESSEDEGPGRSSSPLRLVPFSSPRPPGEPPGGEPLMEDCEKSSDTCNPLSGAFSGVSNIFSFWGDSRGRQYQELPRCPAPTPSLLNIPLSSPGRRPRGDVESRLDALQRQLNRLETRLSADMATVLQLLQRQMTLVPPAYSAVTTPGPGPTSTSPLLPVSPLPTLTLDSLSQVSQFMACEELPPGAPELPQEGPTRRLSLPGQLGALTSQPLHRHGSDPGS

Structure (SMILES)	hERG current change (%, negative = inhibition) at 1uM
CCCCN1C(=O)N(c2ccc(Cl)cc2)C(C)(O)CC1(C)C (centres unmarked)	12.7%
Cc1cccc(N2CCN(C(=O)c3cccc(N4C(=O)C5C6C=CC(C6)C5C4=O)c3)CC2C)c1 (centres unmarked)	14.1%
COc1ccc2c(-c3ccccc3)cc(SCC(=O)N(C)C3CCS(=O)(=O)C3)nc2c1 (centres unmarked)	-13.2%
COc1ccc(S(=O)(=O)NC2CCCCC2)cc1F	5.51%
O=S(=O)(Nc1ccc2c(c1)nc1n2CCN(Cc2ccccc2)C1)c1ccc(Cl)cc1	14.8%
O=C(CCn1c(=O)sc2ccccc21)NC1CCCCC1	12.2%
CCCCCCNCC1OCc2ccccc2CO1	-7.32%
O=C(CCc1ccccc1)NNC(=O)c1ccc(NC(=O)c2ccccc2)cc1	2.85%
Cc1nn2c(CN(C(=O)CN3CCOCC3)c3ccccc3)nnc2c2ccccc12	4.2%
CCCS(=O)(=O)N1CCCC(C(=O)NC2CCCCC2)C1 (centres unmarked)	7.22%
Cc1ccc(CNC(=O)COc2ccc(C(=O)c3ccc(F)cc3)cc2)cc1	9.34%
COc1ccc(CC(=O)Nc2ccc(-c3csc(C)n3)cc2)cc1	0.945%
CC1C/C(=N/Nc2nc3ccccc3[nH]2)CC(C)(C)C1 (centres unmarked)	2.13%
CNC[C@H](CC1CCCCC1)NC[C@H](CO)NCC1(c2ccccc2)CC1	16.5%
O=C(NCCCN1CCCC1=O)C1CCN(S(=O)(=O)c2cccc(Cl)c2Cl)CC1	-1.96%
C=CCn1c(N2CCCCCC2)nc2c1c(=O)n(C)c(=O)n2C	4.47%
COc1ccc(NC(=O)COC(=O)c2cc(C)oc2C)cc1OC	11.5%
COc1cc2c(cc1OC)CN(CC(=O)Nc1cccc([N+](=O)[O-])c1)CC2	2.77%
CC(=O)Nc1ccc(S(=O)(=O)NNC2=NS(=O)(=O)c3ccccc32)cc1	9.28%
Cc1cc(N(CC(=O)O)S(C)(=O)=O)ccc1Br	9.49%
COc1ccc(C(=O)c2c[nH]c(C(=O)NCc3cccs3)c2)cc1	4.98%
Cc1nn(CCC#N)c2c1P(=S)(N1CCCC1)OC(c1ccc(F)cc1)=N2 (centres unmarked)	-0.612%

Structure (SMILES)	hERG current change (%, negative = inhibition) at 1uM
COC(=O)Cc1c(C)c2ccc(OCC(C)=O)c(C)c2oc1=O	4.3%
O=C(OCc1ccc2c(c1)OCO2)c1ccc(S(=O)(=O)N2CCCCC2)cc1	3.84%
Cc1cc(C)c(C#N)c(N2CCN(C(=O)C3COc4ccccc4O3)CC2)n1 (centres unmarked)	-1.46%
CCCOc1ccc(N2C(=O)CC(N3CCC(c4nc5ccccc5o4)CC3)C2=O)cc1 (centres unmarked)	5.39%
Cc1ccc(NC(=O)N(Cc2cccs2)Cc2cc3cc4c(cc3[nH]c2=O)OCO4)cc1	13%
O=C(NC1CCCCC1)c1ccc(Br)o1	15.7%
Cn1c(=O)n(Cc2ccccc2F)c(=O)c2c1nc1n2CCN1Cc1ccco1	2.75%
O=C(Nc1ccccc1)C1=C[C@H](c2ccc3c(c2)OCO3)C[C@H](OCCCCO)O1	-5.43%
Nc1ccc2nc(-c3ccccc3)[nH]c2c1	10.4%
CC1=NN(C(=O)COc2ccc(C)c(C)c2)C(O)(c2ccccc2)C1 (centres unmarked)	4.01%
Cc1cccc(NC(=O)CSc2nnc(CCCCCNC(=O)OC(C)(C)C)o2)c1C	1.55%
CCc1ccc(NC(=O)CC2C(=O)N(c3ccc(C)cc3)C(=O)N2CCc2ccncc2)cc1 (centres unmarked)	0.623%
Nc1nonc1C(=O)NCCNc1ccc([N+](=O)[O-])cc1	11.9%
O=C(c1cc(COc2cccc(C(F)(F)F)c2)on1)N1CCSCC1	7.57%
Nc1nc(SCC(=O)Nc2cc(-c3ccccc3)nn2-c2ccccc2)n[nH]1	11.7%
CCOc1ccc(-c2ccc(SCC(=O)N3CCOCC3)nn2)cc1	-4.36%
Cc1ccc(CNc2nnnn2C)cc1	9.85%
O=C(Nc1cc(C(F)(F)F)ccc1N1CCOCC1)c1cccs1	12.6%
CCn1c(=O)c2cc(C(=O)NCCC(C)C)sc2c2ccccc21	19.8%
Cc1noc(C)c1CSc1cc(C)c2ccccc2n1	10.4%
CN(C)S(=O)(=O)c1cccc(NC(=O)c2cc3c(=O)n4ccccc4nc3s2)c1	8.77%
COc1cc2c(cc1Cl)/C(=C\CCN(C)C)c1ccccc1S2.O=S(=O)(O)O	7.88%
